Assay results taken from paper PMC4336329 (PLoS ONE, 2015).
Among all 310,000 compounds or so, about 14,000 (4.5%) showed an effect of 50% or more. Effects have a minus sign here. Some of the results follow.

These compounds were tested against human ether-à-go-go-related gene (hERG) potassium channel (human, UniProt Q12809) (assay: primary screen, population patch clamp on CHO cells stably expressing hERG).
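Also: peak tail current of the secondary pulse compared with the same well before compound.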

human ether-à-go-go-related gene (hERG) potassium channel, sequence (Q12809 whole entry, looked up): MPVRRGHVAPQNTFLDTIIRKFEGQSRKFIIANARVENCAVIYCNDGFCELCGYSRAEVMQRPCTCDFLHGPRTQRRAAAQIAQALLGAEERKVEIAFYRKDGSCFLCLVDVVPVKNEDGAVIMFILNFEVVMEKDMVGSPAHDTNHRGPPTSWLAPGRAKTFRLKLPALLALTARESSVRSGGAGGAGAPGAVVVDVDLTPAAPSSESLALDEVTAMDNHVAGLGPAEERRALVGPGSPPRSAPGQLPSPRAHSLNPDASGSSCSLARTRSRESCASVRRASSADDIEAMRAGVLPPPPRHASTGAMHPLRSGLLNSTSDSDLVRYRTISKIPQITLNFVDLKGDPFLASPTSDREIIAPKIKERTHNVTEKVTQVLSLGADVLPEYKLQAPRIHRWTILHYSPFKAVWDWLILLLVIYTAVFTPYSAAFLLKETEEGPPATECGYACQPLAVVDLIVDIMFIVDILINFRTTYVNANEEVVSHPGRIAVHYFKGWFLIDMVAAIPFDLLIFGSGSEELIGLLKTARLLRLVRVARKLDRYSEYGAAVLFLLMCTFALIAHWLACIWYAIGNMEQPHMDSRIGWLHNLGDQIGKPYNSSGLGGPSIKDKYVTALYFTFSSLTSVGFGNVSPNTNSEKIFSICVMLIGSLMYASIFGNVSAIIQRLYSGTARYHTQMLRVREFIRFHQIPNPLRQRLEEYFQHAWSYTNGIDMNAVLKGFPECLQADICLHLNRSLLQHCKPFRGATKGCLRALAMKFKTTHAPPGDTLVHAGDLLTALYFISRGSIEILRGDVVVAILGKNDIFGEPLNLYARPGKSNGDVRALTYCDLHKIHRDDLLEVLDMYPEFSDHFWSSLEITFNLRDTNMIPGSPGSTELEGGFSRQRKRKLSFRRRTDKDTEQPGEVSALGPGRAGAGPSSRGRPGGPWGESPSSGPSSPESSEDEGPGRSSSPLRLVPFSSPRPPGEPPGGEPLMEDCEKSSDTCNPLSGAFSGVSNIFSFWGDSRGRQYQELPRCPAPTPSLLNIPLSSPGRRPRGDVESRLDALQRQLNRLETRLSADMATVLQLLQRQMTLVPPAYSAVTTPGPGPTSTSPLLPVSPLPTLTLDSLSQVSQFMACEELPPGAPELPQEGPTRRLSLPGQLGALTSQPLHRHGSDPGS

Row | Compound | hERG current change (%, negative = inhibition) at 10uM [%]
1 | COc1ccc(CN(C)CC(=O)Nc2ccccc2C(=O)NC2CC2)cc1 | -25.7
2 | CCc1cccc(C)c1NC(=O)CSc1nc2ccc(N3C(=O)c4ccccc4C3=O)cc2s1 | 4.44
3 | Cc1c(C)[n+](=O)c2c(n1[O-])CCC2 | -9.48
4 | O=C(COc1ccc(F)cc1Br)NCC1(N2CCOCC2)CCCCC1 | -48.7
5 | O=C1CCCc2[nH]nc(-c3cccnc3)c21 | 8.35
6 | N#CCCn1cc(/C=C2\NC(=S)N(c3ccccc3)C2=O)c(-c2ccc(-c3ccccc3)cc2)n1 | 18.9
7 | CCC(NC(=S)NCc1ccc(F)cc1)c1ccc(C)cc1 (stereo not shown) | 13.7
8 | O=C(Nc1ccc(Cl)cc1Cl)C1CCCO1 (stereo not shown) | 3.31
9 | CN(C)C(CNC(=O)C1CCN(S(=O)(=O)c2cccc(C(F)(F)F)c2)CC1)c1ccccc1 (stereo not shown) | -21
10 | COc1ccc(Br)cc1CN(C)C(=O)c1cnc(C)cn1 | 4.02
11 | Cc1ccc(-n2c(O)c(C=Nc3ccc(S(=O)(=O)Nc4ncccn4)cc3)c3ccccc3c2=O)cc1C | -21.6
12 | Cc1ccc(Cn2c(Sc3nccc(C)n3)nc3c2c(=O)[nH]c(=O)n3C)cc1 | -8.13
13 | O=C(CCS(=O)(=O)c1ccc(Br)s1)N1CCc2ccccc21 | -0.987
14 | NC(=O)c1ccsc1NC(=O)COC(=O)CNC(=O)c1ccc(F)cc1 | -2.42
15 | O=C(Nc1ccccc1)c1ccccc1C(=O)N1CCCCC1 | 26.6
16 | Cc1cc(NC(=O)C(C)Sc2nc(-c3ccccc3)cc(=O)[nH]2)no1 (stereo not shown) | 9.66
17 | CCCC1(c2ccccc2)NC(=O)N(C/C=C/Cl)C1=O (stereo not shown) | -8.22
18 | Cc1cc(=O)oc2cc(Oc3ccc([N+](=O)[O-])cc3C(F)(F)F)ccc12 | -15
19 | O=C(c1ccc(=O)oc1)N1CCN(C(c2ccccc2)c2ccccc2)CC1 | -32.2
20 | Cc1ccc(C(=O)CNc2ccccc2)cc1 | 16.2
21 | CCC(C)NC(=O)COC(=O)c1cc([N+](=O)[O-])ccc1Sc1nc(C)cs1 (stereo not shown) | 4.21
22 | O=C(NCc1ccc(Cl)cc1)C1CCCN1C(=O)Nc1ccccc1 (stereo not shown) | -30.6

Row | Compound | hERG current change (%, negative = inhibition) at 10uM [%]
23 | COc1ccccc1CC(=O)NC12CC3CC(CC(C3)C1)C2 | 11.1
24 | CN(C)C(CNS(=O)(=O)c1ccc(Cl)cc1)c1cccnc1 (stereo not shown) | 18.2
25 | c1ccc(-c2cn3c(n2)-c2ccccc2C3)cc1 | -2.81
26 | CN(CC(=O)Nc1cccc(F)c1)C(=O)CN1C(=O)NC2(CCCC2)C1=O | -4.04
27 | CC(C)(C)c1ccc(/C=N/NC(=O)Cc2c[nH]c3ccccc23)cc1 | 3.3
28 | Cc1ccc(S(=O)(=O)N2CCC(NC(=O)c3cccc(C)c3)CC2)cc1 | 1.29
29 | COc1cc2nc(N(C)CCCNC(=O)C3CCCO3)nc(N)c2cc1OC (stereo not shown) | -17.7
30 | O=S(=O)(c1ccc(Cl)cc1)n1cnc2ccccc21 | 17.5
31 | CCCCCCCCN1[C@@H](CC(=O)OCC)c2ccc(C(F)(F)F)cc2S1(=O)=O | -10.9
32 | O=C1/C(=C\c2ccc(O)cc2)SC(=S)N1/N=C/c1ccc(O)cc1 | 12.1
33 | CCCOc1ccc(/C=N/NC(=O)c2c(-c3ccccc3)noc2C)cc1OC | -8.6
34 | O=C(Cn1cnc2c(nnn2Cc2ccccc2F)c1=O)OCc1ccccc1 | -13.7
35 | COC(=O)NNC(=O)c1ccc(C)cc1 | -29.9
36 | Cc1ccc(S(=O)(=O)CC(=O)Nc2ccc(Cl)cn2)cc1 | -18.6
37 | CC(C)(C)OC(=O)N[C@H](C(=O)OC(C)(C)C)c1ccc(C(F)(F)F)cc1 | 6.05
38 | CCCSc1nc(C)c(-c2csc(C(C#N)=C3CCCC3)n2)cc1C#N | -5.33
39 | CCOP(=O)(OCC)C(NC(=O)Nc1ccc(Cl)cc1)c1ccccc1 (stereo not shown) | -4.45
40 | Cc1ccc(NC(=O)C2C3C=CC4(O3)C2C(=O)N(CCCN2CCOCC2)C4C(=O)NC2CCCCC2)cc1Cl (stereo not shown) | 7.6
41 | COC(=O)[C@@H]1[C@@H](C)N(Cc2ccccc2)C(=O)N[C@H]1c1ccccc1 | 8.6
42 | Cc1ccc(OCC(=O)N2CC(C)OC(C)C2)c([N+](=O)[O-])n1 (stereo not shown) | -17
43 | Cc1ccccc1NC(=O)COC(=O)c1ccc(CSc2ccc(Cl)cc2)cc1 | 6.49
44 | NC(=O)NC(=O)COC(=O)CC12CC3CC(CC(C3)C1)C2 | 8.6

Row | Compound | hERG current change (%, negative = inhibition) at 10uM [%]
45 | COc1ccccc1NC(=O)CSc1ccc(-c2ccco2)nn1 | -21.6
46 | CSc1nc2ccc(NC(=O)c3c(-c4ccccc4)noc3C)cc2s1 | 13
47 | CN(CC(=O)Nc1cc(Cl)ccc1C#N)C1CCS(=O)(=O)C1 (stereo not shown) | -8.06
48 | S=c1[nH]nc(-c2cccs2)n1/N=C/c1cn(-c2ccccc2)nc1-c1ccc(Cl)cc1 | -15.3
49 | CCOC(=O)[C@H]1[C@H]2COc3ccc(Cl)cc3[C@@H]2N2C(=O)c3cc(F)ccc3NC(=O)[C@@]12C | 0.562
50 | CCCNC(=O)N1CCN(S(=O)(=O)c2ccc3c(c2)OCCO3)CC1 | -0.0847
51 | COc1ccc(S(=O)(=O)N2CCNCC2)cc1OC | 12.3
52 | CCOC(=O)C1=C(N)Oc2cc(O)ccc2C1c1ccc(Br)cc1 (stereo not shown) | 5.91
53 | COc1ccc(S(=O)(=O)N2CC(O)CC2C(=O)OCC(=O)Nc2ccc(Cl)cn2)cc1 (stereo not shown) | -41.8
54 | Cc1csc(=O)n1CCC(=O)OCC(=O)NCc1ccc(F)cc1 | 4.46
55 | Cc1cc(Cl)ccc1OCC(=O)NCCC(=O)O | 14.6
56 | CCOC(=O)c1cc(S(=O)(=O)Nc2ccc(OC)cc2OC)cn1C | 2.59
57 | COc1ccccc1N1CCN(C(=O)C(=O)c2cn(CC(=O)N3CCCCCC3)c3ccccc23)CC1 | -8.58
58 | COc1cccc(C(=O)NCCCNC(=O)c2ccco2)c1 | 5.39
59 | Cc1cc(N2C(=O)C(=O)/C(=C(/O)c3ccc(Cl)cc3)C2c2cccc(Br)c2)no1 (stereo not shown) | -4.41
60 | Cc1cccc(C)c1NC(=O)CSc1nc(COc2ccccc2)nc2ccccc12 | -8.72
61 | O=C(CCCO)CCCCCCCCC[C@H]1N[C@H](CO)[C@@H](O)[C@@H]1O | 6.38
62 | COc1ccc(C(O)P(=O)(OCCC(C)C)c2ccc(N(C)C)cc2)cc1OC (stereo not shown) | 5.79
63 | COc1ccc(NC(=O)NCc2ccc(Cl)cc2)cc1 | 9.26
64 | Fc1ccc(CNC(=S)NC2CCCC2)cc1 | 10.1
65 | C[C@]12C=CC(=O)C=C1C=C[C@@H]1C2CC[C@]2(C)C(=O)CCC12 (stereo partly shown) | -7.32
66 | CC(C)(C)C(=O)NC(=S)Nc1ccccc1N1CCCC1 | 8.62

Row | Compound | hERG current change (%, negative = inhibition) at 10uM [%]
67 | c1ccc(N=P(N2CCOCC2)(N2CCOCC2)N2CCOCC2)cc1 | -2.76
68 | Cc1ccc(NC(=O)C2CCCN(S(=O)(=O)c3cccc4cccnc34)C2)cc1 (stereo not shown) | -17.6
69 | CCCc1nnc(NC(=O)CCC(=O)N2CCN(Cc3ccc(F)cc3)CC2)s1 | 1.56
70 | CC(=O)NC(CC(=O)OCC(=O)NCCc1ccccc1)c1ccccc1 (stereo not shown) | 13.7
71 | Cc1ccc(C)n1-c1ccc(C(=O)NN)s1 | 5.43
72 | COC(=O)CCCCC1SCC2NC(=O)NC21 (stereo not shown) | 8.96
73 | COc1ccc(OCc2cc(-c3ccc(Cl)cc3)no2)cc1 | 9.68
74 | CCOC(=O)C1=C(N)n2c(s/c(=C/c3ccccc3)c2=O)=C(C(=O)OCC)C1c1ccccc1 (stereo not shown) | 7.33
75 | CC(C)CSc1nsc(N)n1 | 23.1
76 | OC1(C(F)(F)F)CC(c2ccc3ccccc3c2)=NO1 (stereo not shown) | 4.45
77 | CC1CCN(C(=O)COC(=O)C23CC4CC(CC(O)(C4)C2)C3)CC1 | 9.83
78 | Cc1ccc(N(C)C(=O)c2ccc(CNc3c(N4CCC(C)CC4)c(=O)c3=O)cc2)cc1 | 5.04
79 | O=C(N/N=C/c1ccccc1C(=O)O)c1cc(-c2ccc3c4c(cccc24)CC3)n[nH]1 | 21.2
80 | Cc1ccsc1C1NC(=O)c2c(sc3c2CCCC3)N1 (stereo not shown) | -5.53
81 | CN(C)c1cc2c(cc1NC(=O)c1ccccc1Cl)n(C)c(=O)n2C | 7.89
82 | C=CCNCC(=O)N1N=C(c2ccc3ccccc3c2)CC1c1ccc(OC)cc1.O=C(O)C(=O)O (stereo not shown) | -36
83 | O=C(O)c1ccc(S(=O)(=O)c2ccc3c(c2)C(=O)N(CC2CCCO2)C3=O)cc1 (stereo not shown) | 11.3
84 | CN(Cc1ccccc1F)c1ccc(S(=O)(=O)N2CCCC2)cn1 | -5.47
85 | COc1cccc(CNC(=O)C2CCCN(c3cnccn3)C2)c1 (stereo not shown) | -14.4
86 | O=C(O)c1ccccc1C(=O)NCc1ccc(F)cc1 | 13.1
87 | c1ccc2c(c1)nc1sccn12 | -9.75
88 | NC(=O)c1ccsc1NC(=O)CN1C(=O)NC2(CCCCC2)C1=O | 27.7
